# From the supplement of paper PMC8728848
# Some of the results follow.
# B1: GS7807P-bth-537-23-537 (Bacteroides thetaiotaomicron) (protein)
# chain: NYENINSNPYEAPDLSADGYALGSAMNNLAGCVVSPDVNTAQFTDCLLGGPLGGYFADSNAGFTETISNFNPKDDWSRVFLKSDKIIPTLYSNLTQVKLVSQNTNDPVPYAIAQVIKVAAMHRVTDAFGPIPYSQIGANGEIATPYDSQEVTYNTFFDELNAAIATLNENSNEQLVPTADYIYKGDVKKWIRFANSLKLRLAIRIAYANPVKAQQMAEEAVNPANGGVIESNADNATWNYFETSQNPIYVATRYNQVQTSDHGGVPCLTGGDTHAAADIICYMNGYKDNRREKFFTKSEWAGQDYVGMRRGIVIPELKTTGHKYSGVNIAPTSPLYWMNAAEVAFLRAEGQAVFNFSMGGTAESFYNQGIRLSFEQWGADGVEDYLKDDVNKPTAYTDPAGTNTYQNALSNITIKWNDSADKEEKQERIIVQKWIANWQLGNEAWADFRRTGYPKLIPVKENKSGGVVDSEKGARRMPYPLDEFVSNKANVEYAIANYLHGADNMATDVWWASKK
# Columns and labels:
# Experiment in all cases: glycan array binding signal (z-score within array); higher = stronger binding
# Conditions in all cases: glycan notation: IUPAC condensed, linker removed
# [1] = target: Neu5Ac(a2-3)Gal(b1-4)GlcNAc(b1-6)GalNAc
# Procedure, shortened: (§1)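 Columns mapping to the same glycan were averaged after glycan names were converted to IUPAC-condensed notation. The data come from 3228 arrays in the Consortium for Functional Glycomics database, limited to those with an available protein sequence. Binding is reported as a within-array Z-score averaged across arrays of one protein sequence and across linkers.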
# [2] = target: Neu5Ac(a2-3)Gal(b1-4)GlcNAc(b1-6)[Gal(b1-3)]GalNAc
# Procedure, shortened: as §1
# [3] = target: Neu5Ac(a2-3)Gal(b1-4)GlcNAc(b1-6)[Neu5Ac(a2-3)Gal(b1-3)]GalNAc
# Procedure, shortened: as §1
# [4] = target: Neu5Ac(a2-3)Gal(b1-4)GlcNAc6S
# Procedure, shortened: as §1
# [5] = target: Neu5Ac(a2-3)Gal(b1-4)[Fuc(a1-3)]GlcNAc
# Procedure, shortened: as §1
# [6] = target: Neu5Ac(a2-3)Gal(b1-4)[Fuc(a1-3)]GlcNAc(b1-2)Man
# Procedure, shortened: as §1
# [7] = target: Neu5Ac(a2-3)Gal(b1-4)[Fuc(a1-3)]GlcNAc(b1-3)Gal
# Procedure, shortened: as §1
# [8] = target: Neu5Ac(a2-3)Gal(b1-4)[Fuc(a1-3)]GlcNAc(b1-3)Gal(b1-4)GlcNAc
# Procedure, shortened: as §1
# [9] = target: Neu5Ac(a2-3)Gal(b1-4)[Fuc(a1-3)]GlcNAc(b1-3)Gal(b1-4)[Fuc(a1-3)]GlcNAc(b1-3)Gal(b1-4)[Fuc(a1-3)]GlcNAc
# Procedure, shortened: as §1
# [10] = target: Neu5Ac(a2-3)Gal(b1-4)[Fuc(a1-3)]GlcNAc(b1-3)GalNAc
# Procedure, shortened: as §1
# [11] = target: Neu5Ac(a2-3)Gal(b1-4)[Fuc(a1-3)]GlcNAc(b1-6)[Gal(b1-3)]GalNAc
# Procedure, shortened: as §1
# [12] = target: Neu5Ac(a2-3)Gal(b1-4)[Fuc(a1-3)]GlcNAc(b1-6)[Neu5Ac(a2-3)Gal(b1-3)]GalNAc
# Procedure, shortened: as §1
# [13] = target: Neu5Ac(a2-3)Gal(b1-4)[Fuc(a1-3)]GlcNAc6S
# Procedure, shortened: as §1
# [14] = target: Neu5Ac(a2-3)Gal6S(b1-4)GlcNAc
# Procedure, shortened: as §1
# [15] = target: Neu5Ac(a2-3)Gal6S(b1-4)[Fuc(a1-3)]GlcNAc
# Procedure, shortened: as §1
# [16] = target: Neu5Ac(a2-3)GalNAc
# Procedure, shortened: as §1
# [17] = target: Neu5Ac(a2-3)GalNAc(b1-4)GlcNAc
# Procedure, shortened: as §1
# [18] = target: Neu5Ac(a2-3)[GalNAc(b1-4)]Gal(b1-4)Glc
# Procedure, shortened: as §1
# [19] = target: Neu5Ac(a2-3)[GalNAc(b1-4)]Gal(b1-4)GlcNAc
# Procedure, shortened: as §1
# [20] = target: Neu5Ac(a2-3)[GalNAc(b1-4)]Gal(b1-4)GlcNAc(b1-3)GalNAc
# Procedure, shortened: as §1
# [21] = target: Neu5Ac(a2-3)[Neu5Ac(a2-6)]GalNAc
# Procedure, shortened: as §1
# [22] = target: Neu5Ac(a2-6)Gal
# Procedure, shortened: as §1
# [23] = target: Neu5Ac(a2-6)Gal(b1-3)GlcNAc(b1-3)[Gal(b1-4)GlcNAc(b1-6)]Gal(b1-4)Glc
# Procedure, shortened: as §1
# [24] = target: Neu5Ac(a2-6)Gal(b1-4)Glc
# Procedure, shortened: as §1
# [25] = target: Neu5Ac(a2-6)Gal(b1-4)GlcNAc
# Procedure, shortened: as §1
# [26] = target: Neu5Ac(a2-6)Gal(b1-4)GlcNAc(b1-2)Man
# Procedure, shortened: as §1
# [27] = target: Neu5Ac(a2-6)Gal(b1-4)GlcNAc(b1-2)Man(a1-3)Man(b1-4)GlcNAc(b1-4)GlcNAc
# Procedure, shortened: as §1
# [28] = target: Neu5Ac(a2-6)Gal(b1-4)GlcNAc(b1-2)Man(a1-3)[Gal(b1-4)GlcNAc(b1-2)Man(a1-6)]Man(b1-4)GlcNAc(b1-4)GlcNAc
# Procedure, shortened: as §1
# [29] = target: Neu5Ac(a2-6)Gal(b1-4)GlcNAc(b1-2)Man(a1-3)[GlcNAc(b1-2)Man(a1-6)]Man(b1-4)GlcNAc(b1-4)GlcNAc
# Procedure, shortened: as §1
# [30] = target: Neu5Ac(a2-6)Gal(b1-4)GlcNAc(b1-2)Man(a1-3)[GlcNAc(b1-4)][Neu5Ac(a2-6)Gal(b1-4)GlcNAc(b1-2)Man(a1-6)]Man(b1-4)GlcNAc(b1-4)GlcNAc
# Procedure, shortened: as §1
# [31] = target: Neu5Ac(a2-6)Gal(b1-4)GlcNAc(b1-2)Man(a1-3)[Man(a1-6)]Man(b1-4)GlcNAc(b1-4)GlcNAc
# Procedure, shortened: as §1
# [32] = target: Neu5Ac(a2-6)Gal(b1-4)GlcNAc(b1-2)Man(a1-3)[Neu5Ac(a2-3)Gal(b1-4)GlcNAc(b1-2)Man(a1-6)]Man(b1-4)GlcNAc(b1-4)GlcNAc
# Procedure, shortened: as §1
# [33] = target: Neu5Ac(a2-6)Gal(b1-4)GlcNAc(b1-2)Man(a1-3)[Neu5Ac(a2-6)Gal(b1-4)GlcNAc(b1-2)Man(a1-6)]Man(b1-4)GlcNAc(b1-4)GlcNAc
# Procedure, shortened: as §1
# [34] = target: Neu5Ac(a2-6)Gal(b1-4)GlcNAc(b1-2)Man(a1-3)[Neu5Ac(a2-6)Gal(b1-4)GlcNAc(b1-2)Man(a1-6)]Man(b1-4)GlcNAc(b1-4)[Fuc(a1-6)]GlcNAc
# Procedure, shortened: as §1
# [35] = target: Neu5Ac(a2-6)Gal(b1-4)GlcNAc(b1-2)Man(a1-6)Man(b1-4)GlcNAc(b1-4)GlcNAc
# Procedure, shortened: as §1
# [36] = target: Neu5Ac(a2-6)Gal(b1-4)GlcNAc(b1-2)Man(a1-6)[Gal(b1-4)GlcNAc(b1-2)Man(a1-3)]Man(b1-4)GlcNAc(b1-4)GlcNAc
# Procedure, shortened: as §1
# [37] = target: Neu5Ac(a2-6)Gal(b1-4)GlcNAc(b1-2)Man(a1-6)[GlcNAc(b1-2)Man(a1-3)]Man(b1-4)GlcNAc(b1-4)GlcNAc
# Procedure, shortened: as §1
# [38] = target: Neu5Ac(a2-6)Gal(b1-4)GlcNAc(b1-2)Man(a1-6)[Man(a1-3)]Man(b1-4)GlcNAc(b1-4)GlcNAc
# Procedure, shortened: as §1
# [39] = target: Neu5Ac(a2-6)Gal(b1-4)GlcNAc(b1-2)[Neu5Ac(a2-6)Gal(b1-4)GlcNAc(b1-4)]Man(a1-3)[GlcNAc(b1-4)][Neu5Ac(a2-6)Gal(b1-4)GlcNAc(b1-2)[Neu5Ac(a2-6)Gal(b1-4)GlcNAc(b1-6)]Man(a1-6)]Man(b1-4)GlcNAc(b1-4)GlcNAc
# Procedure, shortened: as §1
# [40] = target: Neu5Ac(a2-6)Gal(b1-4)GlcNAc(b1-2)[Neu5Ac(a2-6)Gal(b1-4)GlcNAc(b1-4)]Man(a1-3)[GlcNAc(b1-4)][Neu5Ac(a2-6)Gal(b1-4)GlcNAc(b1-4)Man(a1-6)]Man(b1-4)GlcNAc(b1-4)GlcNAc
# Procedure, shortened: as §1
# [41] = target: Neu5Ac(a2-6)Gal(b1-4)GlcNAc(b1-2)[Neu5Ac(a2-6)Gal(b1-4)GlcNAc(b1-6)]Man(a1-6)[Neu5Ac(a2-6)Gal(b1-4)GlcNAc(b1-2)Man(a1-3)][GlcNAc(b1-4)]Man(b1-4)GlcNAc(b1-4)GlcNAc
# Procedure, shortened: as §1
# [42] = target: Neu5Ac(a2-6)Gal(b1-4)GlcNAc(b1-3)Gal(b1-3)GlcNAc
# Procedure, shortened: as §1
# [43] = target: Neu5Ac(a2-6)Gal(b1-4)GlcNAc(b1-3)Gal(b1-4)GlcNAc
# Procedure, shortened: as §1
# [44] = target: Neu5Ac(a2-6)Gal(b1-4)GlcNAc(b1-3)Gal(b1-4)GlcNAc(b1-2)Man(a1-3)[Neu5Ac(a2-6)Gal(b1-4)GlcNAc(b1-3)Gal(b1-4)GlcNAc(b1-2)Man(a1-6)]GalNAc
# Procedure, shortened: as §1
# [45] = target: Neu5Ac(a2-6)Gal(b1-4)GlcNAc(b1-3)Gal(b1-4)GlcNAc(b1-3)Gal(b1-4)GlcNAc
# Procedure, shortened: as §1
binder,measurement,setting,value
B1,glycan array binding signal (z-score),[1],0.224
same,glycan array binding signal (z-score),[2],-0.107
same,glycan array binding signal (z-score),[3],-0.358
same,glycan array binding signal (z-score),[4],-0.377
same,glycan array binding signal (z-score),[5],-0.393
same,glycan array binding signal (z-score),[6],-0.365
same,glycan array binding signal (z-score),[7],-0.36
same,glycan array binding signal (z-score),[8],0.04
same,glycan array binding signal (z-score),[9],-0.372
same,glycan array binding signal (z-score),[10],-0.032
same,glycan array binding signal (z-score),[11],0.564
same,glycan array binding signal (z-score),[12],0.189
same,glycan array binding signal (z-score),[13],-0.338
same,glycan array binding signal (z-score),[14],-0.352
same,glycan array binding signal (z-score),[15],-0.383
same,glycan array binding signal (z-score),[16],-0.389
same,glycan array binding signal (z-score),[17],-0.329
same,glycan array binding signal (z-score),[18],0.788
same,glycan array binding signal (z-score),[19],-0.363
same,glycan array binding signal (z-score),[20],-0.067
same,glycan array binding signal (z-score),[21],-0.34
same,glycan array binding signal (z-score),[22],0.265
same,glycan array binding signal (z-score),[23],-0.243
same,glycan array binding signal (z-score),[24],-0.35
same,glycan array binding signal (z-score),[25],-0.342
same,glycan array binding signal (z-score),[26],-0.32
same,glycan array binding signal (z-score),[27],-0.373
same,glycan array binding signal (z-score),[28],0.102
same,glycan array binding signal (z-score),[29],-0.356
same,glycan array binding signal (z-score),[30],-0.321
same,glycan array binding signal (z-score),[31],1.81
same,glycan array binding signal (z-score),[32],-0.201
same,glycan array binding signal (z-score),[33],-0.039
same,glycan array binding signal (z-score),[34],0.269
same,glycan array binding signal (z-score),[35],0.297
same,glycan array binding signal (z-score),[36],0.657
same,glycan array binding signal (z-score),[37],-0.384
same,glycan array binding signal (z-score),[38],5.2
same,glycan array binding signal (z-score),[39],-0.083
same,glycan array binding signal (z-score),[40],1.12
same,glycan array binding signal (z-score),[41],1.38
same,glycan array binding signal (z-score),[42],-0.34
same,glycan array binding signal (z-score),[43],-0.361
same,glycan array binding signal (z-score),[44],0.625
same,glycan array binding signal (z-score),[45],-0.38
